The whole screen tested about 340,000 compounds, of which about 6,900 (2%) were called active. Cut-off read from the data, not from the text of the source: active = inhibition above about 30%; inactive = below that, where a call was filed. Only a part is listed here, and it is no random draw. Where no call is shown, the source filed none. Where a structure was tested more than once in an assay, its records may differ in their call.

UniProt P14416, sequence (P14416 whole entry, looked up): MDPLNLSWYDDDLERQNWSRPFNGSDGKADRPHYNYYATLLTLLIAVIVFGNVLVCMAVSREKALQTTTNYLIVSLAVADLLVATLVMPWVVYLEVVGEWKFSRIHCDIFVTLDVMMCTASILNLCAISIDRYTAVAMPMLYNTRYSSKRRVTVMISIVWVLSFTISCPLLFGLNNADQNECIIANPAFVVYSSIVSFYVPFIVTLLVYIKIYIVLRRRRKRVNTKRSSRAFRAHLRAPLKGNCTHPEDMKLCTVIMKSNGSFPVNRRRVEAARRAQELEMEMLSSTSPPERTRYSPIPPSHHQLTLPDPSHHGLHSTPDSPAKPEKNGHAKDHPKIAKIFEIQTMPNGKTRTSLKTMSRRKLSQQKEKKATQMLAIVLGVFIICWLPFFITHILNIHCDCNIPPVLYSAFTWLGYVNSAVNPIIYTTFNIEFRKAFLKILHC

In the assay the target is D(2) dopamine receptor (Homo sapiens) (UniProt P14416). Briefly: HTS Assay for Allosteric Antagonists of the Human D2 Dopamine Receptor: Primary Screen for Antagonists. Note: 0% is about no effect. The settings on record: HEK293 TREx D2 cells, calcium flux, dopamine EC80; at 10 µM; stronger effect = higher value. The gist of the method:
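Tetracycline-induced HEK293 TREx cells expressing D2 receptor forced-coupled to calcium signalling, loaded with no-wash calcium dye. Compounds added and calcium flux read 180 s, then dopamine added at EC80 and read a further 180 s.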
By inhibition is commonly meant the relative decrease from the control value, in per cent. Turning to `CCOC(=O)c1ccc(NC(=O)CC2C(=O)N(c3ccc(C)cc3)C(=O)N2C2CCCCC2)cc1` (configuration not stated), the inhibition is 3.19%.
In the case of `Cc1cc(=O)n(CC(=O)Nc2ccc([N+](=O)[O-])cc2)c(-n2nc(C)cc2C)n1` it was 17.4%; in that of `Cc1[nH]c2ccccc2c1C(c1ccccc1)c1cccs1` (configuration not stated), 16.8%; in that of `Cc1ccccc1NC(=O)Cn1c(=O)n(CCc2ccccc2)c(=O)c2sc3ccccc3c21`, 8.79%.
In the case of `COc1ccc(CCN2C(=O)c3[nH]nc(-c4ccccc4O)c3C2c2cccc(OC)c2)cc1` (configuration not stated) it was 11.3%.
As for `COC(=O)c1c(NC(=O)Cc2coc3ccc(C)cc23)sc2c1CCC2`, the inhibition was -5.58%.
In the case of `Cc1cccc(NC(=O)c2sc3nc4c(cc3c2N)CCCCCC4)c1C` it was 17.5%; in that of `CC(C)C1C(=O)Nc2ccc(S(=O)(=O)NCc3ccc(Cl)cc3)cc21` (configuration not stated), 0.384%.
In the case of `COc1ccc(C2C(C(N)=O)=C(C)Nc3nc(CCCO)nn32)cc1` (configuration not stated) it was -18.8%.
Consider `COc1ccc(/C=N/NC(=O)c2sccc2OCc2ccc(F)cc2)cc1OC`, for which the inhibition is active: 36.7%.
Regarding `Cc1ccc(NC(=O)CSc2c3c(nc4ccccc24)CCCC3)cc1F`, the inhibition is 3.28%.
In the case of `O=C(c1ccccc1Cl)N(Cc1ccco1)Cc1ccco1` it was -4.64%; in that of `CN(Cc1ccccc1)c1ccc(-c2nc(-c3ccco3)no2)cc1[N+](=O)[O-]`, 28.4%.
On to `CC(=O)c1cccc(NC(=O)c2c(-c3ccccc3)c(-c3ccccc3)nn(C)c2=O)c1`, for which the inhibition was 1.53%.
Turning to `Cc1ccccc1Nc1c(-c2cccc(N(C)C)c2)nc2ccc(Br)cn12`, the inhibition was found to be 5.44%.
In the case of `Cc1cc(F)ccc1-n1nnc(C(N)=O)c1C` it was 10.4%.
In the case of `Cc1cccc(C(=O)Nc2cccc(C(=O)OCc3cc(=O)n4nc(C(C)C)sc4n3)c2)c1` it was 9.82%; in that of `OC(COC(c1ccccc1)c1ccccc1)CN1CCN(c2ccccn2)CC1` (configuration not stated), active: 77.8%; in that of `CC(NC(=O)c1ccc(NC(=O)c2nsc3ccccc23)cc1)c1ccccc1` (configuration not stated), 18.2%.
In the case of `COc1ccc2c(C(=O)c3ccc(C)cc3)n(Cc3ccc(C(N)=O)cc3)[n+]([O-])c2c1` it was active: 60.4%; in that of `Cn1nnnc1SCCNCc1ccc(OCc2ccccc2Cl)cc1`, -5.58%; in that of `O=C(COc1ccccc1)NCc1ccc2c(c1)CCN2C(=O)c1ccccc1`, 1.45%.
Turning to `Cc1ccc(N(C)S(=O)(=O)c2ccc3[nH]c4c(c3c2)CCCC4)cc1`, the inhibition is -9.14%.
In the case of `Cc1cc(Sc2ccc(Cl)cc2)nc2ccccc12` it was 6.5%.
In the case of `O=C(CSc1ccccc1)NCc1ccc2c(c1)CCN2C(=O)c1ccc(Cl)cc1` it was -26%; in that of `O=C(Nc1cccc(Cl)c1)c1cc(-c2ccc3c(c2)OCCO3)on1`, -1.8%; in that of `Cc1nnc(N2CCCC(C(=O)Nc3cccc(C(F)(F)F)c3)C2)c2nn(-c3ccccc3)c(C)c12` (configuration not stated), -8.3%.
In the case of `Cc1cccc(C(=O)Nc2cccc(OCc3cc(=O)n4cccc(C)c4n3)c2)c1` it was 5.75%.
With `Cc1cccc(N(C)C(CNS(=O)(=O)c2ccccc2)c2ccccc2)c1` (configuration not stated), the inhibition was -1.31%.
In the case of `CCN(CC)CCNC(=O)C(=O)NCC(c1cccnc1)N1CCN(c2ccccc2)CC1` (configuration not stated) it was 20.3%.
In the case of `Cc1ccc(C)c(Nc2nc(-c3ccccc3)c3cc(Br)ccc3n2)c1` it was -5.99%; in that of `COc1ccc(CCNC(=O)CCCCn2c(=O)c3ccccc3n(CC(=O)Nc3ccc(C)cc3C)c2=O)cc1OC`, -8.12%.
Turning to `O=C(COc1ccccc1)NCCc1csc(-c2cccc(F)c2)n1`, the inhibition is -3.83%.
In the case of `COC(=O)c1cccc(Cn2nnc3sc4c(c3c2=O)CCC(C(C)(C)C)C4)c1` (configuration not stated) it was 5.23%.
In the case of `CCN1C(=O)C(Cc2nc3ccccc3c(=O)n2-c2ccc(OC)cc2)c2cc(C)ccc21` (configuration not stated) it was -4.2%.
In the case of `N#Cc1cccc(NC(=O)Cn2nc(Cc3ccncc3)c3ccccc3c2=O)c1` it was -17.1%; in that of `COc1ccc(-c2cc3c(=O)n(CC(=O)Nc4ccc(Br)c(C)c4)ccn3n2)cc1OC`, -4.48%; in that of `Cc1cc(S(=O)(=O)Nc2cc3c(cc2NCc2ccccc2)n(C)c(=O)n3C)ccc1F`, -15.1%.
Turning to `O=C(CSCc1ccc(F)cc1)N1CCc2c([nH]c3ccccc23)C1c1ccc(F)cc1` (configuration not stated), the inhibition is -7.58%.
In the case of `O=C(CCn1c(=O)c2cccn2c2cccnc21)Nc1ccccc1Br` it was -3.62%; in that of `Cc1cccc(NC(=O)CSc2nnc3[nH]c(=O)cc(C)n23)c1C`, 19.5%.
In the case of `CC(C)(C)c1ccc(-c2cn(-c3ccc(Br)cc3)c3[n+]2CCCS3)cc1` it was active: 41.8%; in that of `CC(C)Oc1ccc(C2CC(=O)N(c3ccc(N(C)C)cc3)C2=O)cc1` (configuration not stated), active: 34%; in that of `CCc1ccccc1NC(=O)CSc1nc(C)c(C(=O)Nc2ccccc2)c(-c2ccc(Cl)cc2)c1C#N`, -5.35%.
In the case of `Cc1ccc(NC(=O)C2CCN(S(=O)(=O)c3cccc4nonc34)CC2)c(Cl)c1` it was -6.05%.
Take `CCOC(=O)c1c(C)[nH]c(C)c1S(=O)(=O)N1CCC(C(=O)NCc2cccc(C)c2)CC1`: the inhibition was -11.1%.
In the case of `O=C(Nc1ccc(-c2nc3ccccc3s2)c(O)c1)c1ccc(Br)cc1` it was -0.605%.
In the case of `Cc1nn(S(=O)(=O)c2ccc(F)cc2)c(C)c1S(=O)(=O)N1CCCCC1` it was -9.84%; in that of `COc1ccc(NC(=O)CSc2c3c(nc4ccccc24)CCC3)cc1Cl`, -12.1%; in that of `CC(C)(C)C(=O)Nc1nnc2n1CCS2`, 4.49%.
Take `Cc1ccc2c(c1)N(C(=O)CCC(=O)Nc1ccc(F)cc1F)CC(C)O2` (configuration not stated): the inhibition is 16.9%.
In the case of `CCOc1ccccc1N(C)C(=O)c1cc(S(=O)(=O)NCCc2ccc(Cl)cc2)ccc1F` it was -2.96%.
In the case of `CCOc1ccc(NC(=O)c2ccc3c(c2)nnn3C2CCCC2)cc1` it was -6.75%; in that of `CCN(CC)S(=O)(=O)c1ccc(NC(=O)c2ccc3c(=O)n4c(nc3c2)CCCCC4)cc1`, -8.53%; in that of `Cc1ccccc1CNC(=O)CCc1cn(Cc2ccccc2C)c2ccccc12`, 12.5%.
In the case of `CC(C)(C)c1ccc(C(=O)N2CCC(c3noc(-c4ccc(S(=O)(=O)N5CCCC5)cc4)n3)CC2)cc1` it was 1.67%.
Turning to `O=C(Nc1cc(C(F)(F)F)ccc1Cl)c1cc(-c2cccs2)nc2ccccc12`, the inhibition is -6.18%.
For `Cc1cc(C)c(S(=O)(=O)NCCc2sc(-c3cccnc3)nc2C)c(C)c1`, the inhibition is -12.2%.
In the case of `Cc1cc(S(=O)(=O)Nc2cc3c(cc2Cl)n(C)c(=O)c(=O)n3C)ccc1F` it was -1.91%; in that of `Cc1ncc(C[n+]2csc(CCO)c2C)c(N)n1`, active: 67.8%.
In the case of `Cn1c(=O)c2cc(C(=O)N3CCN(c4cccc(C(F)(F)F)c4)CC3)sc2c2ccccc21` it was -7.42%; in that of `Cc1c(Cl)cccc1NC(=O)C1CCCN(C(=O)c2cnn(-c3ccccc3)c2-n2cccc2)C1` (configuration not stated), 3.22%; in that of `COc1ccc(NC(=O)C(=O)NCCN2CCN(C(=O)c3ccc(C)cc3)CC2)cc1`, active: 46%.
In the case of `O=C(Nc1nc2ccc(F)cc2s1)c1nc(SCc2ccccc2F)ncc1Cl` it was -11.1%; in that of `O=C(CN1C(=O)COc2ccc(S(=O)(=O)N3CCOCC3)cc21)Nc1ccc(F)c(Cl)c1`, -5.4%.
For `O=C(Nc1nc2c(F)cc(F)cc2s1)c1ccc2c(c1)OCCO2`, the inhibition was -6.76%.
As to `COc1cc(OC)c(N(C)C(=O)c2cn(C)c(=O)c3cc(OC)c(OC)cc23)cc1Cl`, the inhibition worked out at 2.54%.
In the case of `CCOc1cccc(CN2CCCC(C(=O)c3cc(Cl)ccc3OC)C2)c1O` (configuration not stated) it was active: 65.6%.
In the case of `O=C(NCCc1ccc(Cl)cc1)C(=O)NCC(c1ccc2c(c1)OCO2)N1CCOCC1` (configuration not stated) it was -14.3%; in that of `Cc1ccc(C)c(N2CCN(S(=O)(=O)c3ccc(-c4cc(C(F)(F)F)on4)s3)CC2)c1`, -2.51%.
In the case of `CS(=O)(=O)N(CC(=O)NCc1ccccc1)C1CCCCC1` it was active: 36.9%; in that of `O=C1C2CCCCN2C(=O)N1CCCCN1CCN(c2cccc(Cl)c2)CC1` (configuration not stated), active: 91.7%; in that of `Cc1ccc(NC(=O)C[n+]2cc(-c3ccccc3)n3c2CCC3)cc1`, active: 56.1%.
For `CCOc1ccc(NC(=O)CSc2ncn[nH]2)cc1`, the inhibition was -14.4%.
For the molecule `CCOC(=O)c1cc(-c2ccc(OC)cc2)n(CCC(=O)NCc2ccccc2OC)c1C`, the inhibition is -5.92%.
In the case of `CCOc1ccc(N2CC(C(=O)N3CCCc4ccccc43)CC2=O)cc1` (configuration not stated) it was active: 55.8%; in that of `Cc1ccsc1CN(Cc1ccco1)C(=O)c1ccc(Cl)cc1`, 2.54%; in that of `Cc1c(C(=O)Nc2ccc(F)cc2F)oc2ccc3c(c12)C(=O)CC(C)(C)O3`, -0.963%.
In the case of `Cn1ncc2c(NCc3ccc(Cl)cc3)ncnc21` it was 10.8%; in that of `COc1ccc(CCNC(=O)c2cnc3ccc(C)cn3c2=O)cc1OC`, 11.9%.
In the case of `CC(C)OCCCNc1sc(S(=O)(=O)c2ccccc2)nc1S(=O)(=O)c1ccc(Cl)cc1` it was -23.2%; in that of `CCC(=O)Nc1ccc2c(c1)nc(CCN1CCN(c3ccccn3)CC1)n2C`, active: 57%.
On to `CCOc1ccccc1NC(=O)CSc1nc2c(oc3ccccc32)c(=O)n1C(C)C`, for which the inhibition is -1.18%.
In the case of `CCOc1ccccc1NC(=O)Cn1cnc2c1c(=O)n(C)c(=O)n2C` it was 0.731%.
In the case of `COc1ccc(N2CC3=C(C2=O)C(c2ccc(O)c(OC)c2)NC(=O)N3C)cc1` (configuration not stated) it was -3.94%.
In the case of `CCOC(=O)c1ccccc1NC(=O)c1cc2c(s1)-c1c(C)cccc1OC2` it was -5.48%; in that of `Cc1ccc(CNC(=O)c2c(O)nc3ccccn3c2=O)cc1`, 6.63%.
On to `Cc1ccc(Cn2c(=O)n(CC3CCC(C(=O)N4CCC(C)CC4)CC3)c(=O)c3sccc32)cc1` (configuration not stated), for which the inhibition is -4.6%.
Consider `Cc1ccc(N(Cc2cccs2)C(=O)Nc2cccc(Cl)c2)cc1`, for which the inhibition was determined as 2.58%.
In the case of `Cc1c(Cl)cccc1NC(=O)NCc1c(-n2cccc2)sc2c1CCCC2` it was 26.5%; in that of `Cc1oc2c(c1C(=O)Nc1ccccc1Br)C1=NCCN1C=N2`, -4.61%.
On to `COc1cccc(CNC(=O)c2sc3nc4n(c(=O)c3c2C)CCC4)c1`, for which the inhibition worked out at 2.56%.
In the case of `O=C(NCCc1cccs1)c1ccc(Cn2c(SCc3ccccc3)nc3cccnc32)cc1` it was 15.5%.
In the case of `COc1cc(C(CC(=O)Nc2ccc(Br)cn2)N2Cc3ccccc3C2=O)cc(OC)c1OC` (configuration not stated) it was 4.23%.
In the case of `O=C(COC(=O)C1C2CC3OC(=O)C1C3C2)Nc1ccccc1` (configuration not stated) it was active: 69.5%; in that of `Cc1c(C(=O)Nc2cccc(F)c2)oc2c1-c1nn(Cc3c(F)cccc3Cl)cc1CC2`, -16.3%.
Consider `COc1cccc(C(c2sc3nc(-c4ccco4)nn3c2O)N2CCOCC2)c1` (configuration not stated), for which the inhibition was -21.2%.

These data come from PubChem BioAssay AID485344 (National Center for Advancing Translational Sciences (NCATS), 2010).
